Laboratory results: patent US20260013501A1, “HERBICIDAL DERIVATIVES” (SYNGENTA CROP PROTECTION AG, priority 2022, published 2026)
At least one read-out could not be matched to a standard name with certainty.

Columns and labels:
Assay type in all cases: in vivo
[1] = test system: Ipomoea hederacea (IPOHE); assay: Pre-emergence Test (Table B1), IPOHE; details: evaluated after 13 days
[2] = test system: Amaranthus palmeri (AMAPA); assay: Post-emergence Test (Table B2), AMAPA; design: key: five-point scale: 5=81-100%, 4=61-80%, 3=41-60%, 2=21-40%, 1=0-20% damage; details: evaluated after 13 days
Procedure, shortened: (§1)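 Score: % damage at 13 d on a 5-point scale (5=81-100%; 4=61-80%; 3=41-60%; 2=21-40%; 1=0-20%). Seeds sown in pots, sprayed with test article in acetone/water 50:50 + 0.5% Tween 20; rate in g/ha. Glasshouse 24/16 °C, 14 h light, 65% RH, watered twice daily.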

[3] = test system: Echinochloa crus-galli (ECHCG); assay: Pre-emergence Test (Table B1), ECHCG; details: evaluated after 13 days
[4] = test system: Ipomoea hederacea (IPOHE); assay: Post-emergence Test (Table B2), IPOHE; design: key: five-point scale: 5=81-100%, 4=61-80%, 3=41-60%, 2=21-40%, 1=0-20% damage; details: evaluated after 13 days
Procedure, shortened: as §1

Setaria faberi (SETFA) [5] = assay: Pre-emergence Test (Table B1), SETFA; details: evaluated after 13 days
Zea mays (ZEAMX) [6] = assay: Pre-emergence Test (Table B1), ZEAMX; details: Rate 1000 g/Ha, evaluated after 13 days
[7] = test system: Echinochloa crus-galli (ECHCG); assay: Post-emergence Test (Table B2), ECHCG; design: key: 5-point damage scale: 5=81-100%, 4=61-80%, 3=41-60%, 2=21-40%, 1=0-20%; details: evaluated after 13 days
Procedure, shortened: as §1

[8] = test system: Amaranthus retoflexus (AMARE); assay: Post-emergence Test (Table B2), AMARE; design: key: five-point scale: 5=81-100%, 4=61-80%, 3=41-60%, 2=21-40%, 1=0-20% damage; details: evaluated after 13 days
Procedure, shortened: as §1

Setaria faberi (SETFA) [9] = assay: Post-emergence Test (Table B2), SETFA; design: key: five-point scale: 5=81-100%, 4=61-80%, 3=41-60%, 2=21-40%, 1=0-20% damage; details: evaluated after 13 days
Procedure, shortened: as §1

Zea mays (ZEAMX) [10] = assay: Post-emergence Test (Table B2), ZEAMX; design: key: 5-point damage scale: 5=81-100%, 4=61-80%, 3=41-60%, 2=21-40%, 1=0-20%; details: evaluated after 13 days
Procedure, shortened: as §1

[11] = test system: Amaranthus palmeri (AMAPA); assay: Pre-emergence Test (Table B1), AMAPA; details: evaluated after 13 days
[12] = test system: Amaranthus retoflexus (AMARE); assay: Pre-emergence Test (Table B1), AMARE; details: evaluated after 13 days

SMILES | Pre-emergence Test, percentage damage caused to the plant (five-point scale), IPOHE ([1]; Rate 1000 g/Ha) | percentage damage caused to the plant, AMAPA ([2]; rate 1000 g/Ha) | Pre-emergence Test, percentage damage caused to the plant (five-point scale), ECHCG ([3]; Rate 1000 g/Ha) | percentage damage caused to the plant, IPOHE ([4]; rate 1000 g/Ha) | percentage damage caused to the plant, ECHCG ([7]; rate 1000 g/Ha) | percentage damage caused to the plant, AMARE ([8]; rate 1000 g/Ha) | percentage damage caused to the plant, ZEAMX (Zea mays (ZEAMX) [10]; rate 1000 g/Ha) | Pre-emergence Test, percentage damage caused to the plant (five-point scale), IPOHE ([1]; Rate 250 g/Ha) | percentage damage caused to the plant, AMAPA ([2]; rate 250 g/Ha) | Pre-emergence Test, percentage damage caused to the plant (five-point scale), AMAPA ([11]; Rate 250 g/Ha) | Pre-emergence Test, percentage damage caused to the plant (five-point scale), ECHCG ([3]; Rate 250 g/Ha) | percentage damage caused to the plant, IPOHE ([4]; rate 250 g/Ha) | Pre-emergence Test, percentage damage caused to the plant (five-point scale), SETFA (Setaria faberi (SETFA) [5]; Rate 250 g/Ha) | percentage damage caused to the plant, ECHCG ([7]; rate 250 g/Ha) | Pre-emergence Test, percentage damage caused to the plant (five-point scale), AMARE ([12]; Rate 250 g/Ha) | percentage damage caused to the plant, AMARE ([8]; rate 250 g/Ha) | percentage damage caused to the plant, SETFA (Setaria faberi (SETFA) [9]; rate 250 g/Ha) | percentage damage caused to the plant, ZEAMX (Zea mays (ZEAMX) [10]; rate 250 g/Ha) | further results
CCn1c(Cc2nccs2)cc(=O)c(C(=O)O)c1-c1ccc(Cl)c(Cl)c1 [Compound 19, 2-(3,4-dichlorophenyl)-1-ethyl-4-oxo-6-(thiazol-2-ylmethyl)pyridine-3-carboxylic acid] | 3 (3=41-60%) | 1 (1=0-20%) | 1 (1=0-20%) | 2 (2=21-40%) | 3 (3=41-60%) | 1 (1=0-20%) | 3 (3=41-60%) | – | – | – | – | – | – | – | – | – | – | – | Pre-emergence Test, percentage damage caused to the plant (five-point scale), SETFA (Setaria faberi (SETFA) [5]; Rate 1000 g/Ha): 5 (5=81-100%); Pre-emergence Test, percentage damage caused to the plant (five-point scale), ZEAMX (Zea mays (ZEAMX) [6]): 1 (1=0-20%); percentage damage caused to the plant, SETFA (Setaria faberi (SETFA) [9]; rate 1000 g/Ha): 3 (3=41-60%)
CCn1c(Cc2ccnc(F)c2)cc(=O)c(C(=O)O)c1-c1ccc(Cl)c(Cl)c1 [Compound 44, 2-(3,4-dichlorophenyl)-1-ethyl-6-[(2-fluoro-4-pyridyl)methyl]-4-oxo-pyridine-3-carboxylic acid] | – | – | – | – | – | – | – | 2 (2=21-40%) | 3 (3=41-60%) | 1 (1=0-20%) | 4 (4=61-80%) | 3 (3=41-60%) | 5 (5=81-100%) | 4 (4=61-80%) | 2 (2=21-40%) | 3 (3=41-60%) | 4 (4=61-80%) | 2 (2=21-40%) | –
CCn1c(Cc2ccn(C3CC3)n2)cc(=O)c(C(=O)O)c1-c1ccc(Cl)c(Cl)c1 [Compound 54, 6-[(1-cyclopropylpyrazol-3-yl)methyl]-2-(3,4-dichlorophenyl)-1-ethyl-4-oxo-pyridine-3-carboxylic acid] | 3 (3=41-60%) | 3 (3=41-60%) | 5 (5=81-100%) | 3 (3=41-60%) | 4 (4=61-80%) | 3 (3=41-60%) | 4 (4=61-80%) | – | – | – | – | – | – | – | – | – | – | – | Pre-emergence Test, percentage damage caused to the plant (five-point scale), ZEAMX (Zea mays (ZEAMX) [6]): 5 (5=81-100%)
CCn1c(Cc2ccc(OC)cc2C(F)(F)F)cc(=O)c(C(=O)O)c1-c1ccc(Cl)c(Cl)c1 [Compound 65, 2-(3,4-dichlorophenyl)-1-ethyl-6-[[4-methoxy-2-(trifluoromethyl)phenyl]methyl]-4-oxo-pyridine-3-carboxylic acid] | 1 (1=0-20%) | 2 (2=21-40%) | 3 (3=41-60%) | 1 (1=0-20%) | 1 (1=0-20%) | 2 (2=21-40%) | 1 (1=0-20%) | – | – | – | – | – | – | – | – | – | – | – | Pre-emergence Test, percentage damage caused to the plant (five-point scale), AMAPA ([11]; Rate 1000 g/Ha): 1 (1=0-20%); Pre-emergence Test, percentage damage caused to the plant (five-point scale), SETFA (Setaria faberi (SETFA) [5]; Rate 1000 g/Ha): 3 (3=41-60%); Pre-emergence Test, percentage damage caused to the plant (five-point scale), AMARE ([12]; Rate 1000 g/Ha): 1 (1=0-20%); percentage damage caused to the plant, SETFA (Setaria faberi (SETFA) [9]; rate 1000 g/Ha): 2 (2=21-40%)
CCn1c(Cc2cc(C(F)F)ccn2)cc(=O)c(C(=O)O)c1-c1ccc(Cl)c(Cl)c1 [Compound 115, 2-(3,4-dichlorophenyl)-6-[[4-(difluoromethyl)-2-pyridyl]methyl]-1-ethyl-4-oxo-pyridine-3-carboxylic acid] | – | – | – | – | – | – | – | 3 (3=41-60%) | 3 (3=41-60%) | 1 (1=0-20%) | 1 (1=0-20%) | 3 (3=41-60%) | 4 (4=61-80%) | 3 (3=41-60%) | 1 (1=0-20%) | 4 (4=61-80%) | 4 (4=61-80%) | 3 (3=41-60%) | –
CCn1c(Cc2ccn(CC(C)C)n2)cc(=O)c(C(=O)O)c1-c1ccc(Cl)c(Cl)c1 [Compound 121, 2-(3,4-dichlorophenyl)-1-ethyl-6-[(1-isobutylpyrazol-3-yl)methyl]-4-oxo-pyridine-3-carboxylic acid] | – | – | – | – | – | – | – | 4 (4=61-80%) | 1 (1=0-20%) | 1 (1=0-20%) | 4 (4=61-80%) | 3 (3=41-60%) | 5 (5=81-100%) | 4 (4=61-80%) | 1 (1=0-20%) | 1 (1=0-20%) | 4 (4=61-80%) | 3 (3=41-60%) | –
CCn1c(Cc2nc(OC)cc(OC)n2)cc(=O)c(C(=O)O)c1-c1ccc(Cl)c(Cl)c1 [Compound 126, 2-(3,4-dichlorophenyl)-6-[(4,6-dimethoxypyrimidin-2-yl)methyl]-1-ethyl-4-oxo-pyridine-3-carboxylic acid] | – | – | – | – | – | – | – | 2 (2=21-40%) | – | 1 (1=0-20%) | 3 (3=41-60%) | 4 (4=61-80%) | 4 (4=61-80%) | 4 (4=61-80%) | 5 (5=81-100%) | – | 4 (4=61-80%) | 4 (4=61-80%) | –
CCn1c(Cc2ccc(OC)nn2)cc(=O)c(C(=O)O)c1-c1ccc(Cl)c(Cl)c1 [Compound 133, 2-(3,4-dichlorophenyl)-1-ethyl-6-[(6-methoxypyridazin-3-yl)methyl]-4-oxo-pyridine-3-carboxylic acid] | – | – | – | – | – | – | – | 3 (3=41-60%) | 1 (1=0-20%) | 1 (1=0-20%) | 3 (3=41-60%) | 4 (4=61-80%) | 1 (1=0-20%) | 2 (2=21-40%) | 1 (1=0-20%) | 2 (2=21-40%) | 1 (1=0-20%) | 4 (4=61-80%) | –
CCn1c(Cc2cccc(Br)n2)cc(=O)c(C(=O)O)c1-c1ccc(Cl)c(Cl)c1 [Compound 138, 6-[(6-bromo-2-pyridyl)methyl]-2-(3,4-dichlorophenyl)-1-ethyl-4-oxo-pyridine-3-carboylic acid] | – | – | – | – | – | – | – | 1 (1=0-20%) | 1 (1=0-20%) | 1 (1=0-20%) | 3 (3=41-60%) | 4 (4=61-80%) | 4 (4=61-80%) | 3 (3=41-60%) | 1 (1=0-20%) | 1 (1=0-20%) | 3 (3=41-60%) | 3 (3=41-60%) | –
CCn1c(Cc2ccon2)cc(=O)c(C(=O)O)c1-c1ccc(Cl)c(Cl)c1 [Compound 149, 2-(3,4-dichlorophenyl)-1-ethyl-6-(isoxazol-3-ylmethyl)-4-oxo-pyridine-3-carboxylic acid] | – | – | – | – | – | – | – | 2 (2=21-40%) | 1 (1=0-20%) | 1 (1=0-20%) | 1 (1=0-20%) | 4 (4=61-80%) | 4 (4=61-80%) | 1 (1=0-20%) | 2 (2=21-40%) | 1 (1=0-20%) | 2 (2=21-40%) | – | –
